# Measurements as given in the supplement of paper PMC11417369.
# Some of the results follow.
# System: PfAP2-HC AP2 domain (GST-tagged)
# Experiment: gcPBM binding intensity (ln(normalized median fluorescence intensity)); higher = stronger DNA binding
# Method in brief: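 GST-fused DNA-binding domains of P. falciparum, expressed in E. coli, were applied at about 25 μg on average for 1 h to an Agilent 4 × 180k array of primer-extended double-stranded 36-bp intergenic genomic probes and negative controls. Binding intensity is the highest Masliner-normalised natural-log median intensity across replicate spots of either probe orientation, measured with Alexa488 anti-GST antibody and a 488 nm scan.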
row,Sequence,gcPBM binding intensity (ln)
1,AAGAAATATTTATACACACACACAAACATATATATA [CACACA_site1912],10.5
2,ATATTATTGTAGAAATGTACATATATATATATATAT [XGTACX_site1882],9.78
3,CAAAAGTATAATAATACACACACTTTAAAAGTTAAA [CACACA_site3343],9.92
4,TAGATTCTTGAATAAGTGCAAAATATAATATTTATT,9.41
5,AAAAATAAAATAAAATAAAATAAACATACCATATGT [CACACA_negctrl_site594],9.87
6,TTATTATTTTATAACACACACATATAGATTATAGCT [CACACA_site6787],9.88
7,ATATATATATATATAAAGTGAAGTATGAGGGAAATA [XGTACX_negctrl_site497],9.89
8,TTTTGTATTTATGGATGTACATAATATGTTTTAAAC [XGTACX_site3278],9.67
9,TATGTATGTATTAATGCGCACACAAAAAATAACAAT [CACACA_site8551],9.97
10,AAAAATTAAATATAAAGTACAAAATTAAAATCTTAA [XGTACX_site931],9.62
11,TTTCCATATATAGAACGTACAAAGATCTTTGTTACT [XGTACX_site8972],9.57
12,ATACATATATATATGTGTACATATTATATATACATA [XGTACX_site8420],9.74
13,TATATATGGTATAATTGTACTAACGCCAACTATACC [XGTACX_site5853],9.52
14,TGCATATACATATGTAGTACAATAATTTGAAAAAAA [XGTACX_site5239],9.63
15,TTTTTTTTTATGTGCACACAAAAGATGCTTATATTT [CACACA_site2348],9.86
16,TAGCTTTTGCCTTTTTTTAAAAAAAAATAAATAAAT [TGCATGCA_negctrl_site242],9.19
17,TATATATATTTATACACACAAACATAATACTACTTA [CACACA_site2022],9.83
18,ATAAATATATGAAATATACACACTTCTTTGGTATTA [CACACA_site456],9.78
19,TTTCGTAACTATTTGTGTACATATATATATATATAT [XGTACX_site2920],9.84
20,ATTTTCTTTTCCATAGTGCAATATAATTATCCATCA [GTGCAC_site9547],9.61
21,ATTTTGTGCGCACACACATGCAAAAAGAAATATGAT [TGCATGCA_site261],10.2
22,AAAGAGAGTATCTAATGTACGTATGTATGTATATAT [XGTACX_site1780],9.78

row,Sequence,gcPBM binding intensity (ln)
1,TATTATATATTAAATGCATGTAAAAATAATATTAAA [TGCATGCA_site643],9.37
2,ATATTATAATAAATGTGTACATATTGTAGAAATATT [XGTACX_site8101],9.81
3,AATTATTTACCCTATACACACAAAACACGCTAAAAA [CACACA_site1211],10.3
4,ATAAATACACACAAGTGTACATACTTCTATAAATAT [XGTACX_site1845],9.99
5,ATCGTGAATAATATCTGTACATATGAACACATATAT [XGTACX_site952],9.79
6,TATGACCTTAGAAATTGTACAAGAAAAAATGTTACA [XGTACX_site7084],9.53
7,ATATAAAATACATGGGTGCAATATATTAAACAAATA [GTGCAC_site9421],9.76
8,GTTATAAATAAATACACACATACAAAAATATGACGT [CACACA_site1154],9.91
9,TCACATACATGAAAATGTACTTTTATAATTCCATAA [XGTACX_site1836],9.55
10,TAAATAATTTCACGAATGACAAAGATATAATAAGTT [CACACA_negctrl_site1430],9.65
11,TCTGTAAATACGTGCACACACAAATCACAAATGTGA [CACACA_site330],9.9
12,TAAAGGTGAACAATACGTACATAAGAACTTATGAGG [XGTACX_site4216],9.73
13,ATTCAAAAAAAATCAACACACAGTTACATAGCTCAA [CACACA_site2234],10.3
14,ATTCCATAAGTAAACACACAAATGCCAAAATTTTAT [CACACA_site7491],9.86
15,ATATATATATATATGTGTACACAAAAAATATTATAT [XGTACX_site5741],9.92
16,GCACATATATATGAAACACACATGGAAACATCTCTT [CACACA_site3966],9.8
17,AATCTAATTAAAATCACACATATATTCGTCGTAATA [CACACA_site5855],9.52
18,AAAAAATTAACGAGTGCACACATATTTAGATAAAAT [CACACA_site8958],10
19,ATATATATATATATAACACACGTGTATTTATCTGTA [CACACA_site5922],9.82
20,AATGTATATTATTGCACACATATATAAAATTATGCT [CACACA_site1096],9.81
21,ATATATGTTAATAATTGTACAAATCGATAATATATA [XGTACX_site5076],9.83
22,AAAAAAATATAGATCTGTACATATATAAATATATGT [XGTACX_site511],9.58

row,Sequence,gcPBM binding intensity (ln)
1,TCTCTAATTTTTAATACACACAAATAAATAAATAAA [CACACA_site216],9.43
2,ATTTGTGAATATATTCGGTGAACTTTGTTAACACAT [XGTACX_negctrl_site445],9.64
3,ATCTCTATGATATATACACACAAATATACAAAAAAA [CACACA_site6605],9.8
4,TATTATATTTGTATGTGTACTTATATGGTTGTAATA [XGTACX_site4548],9.6
5,ATGGAAAAAAAGCATTGTACATTTAAAGAAAAACAG [XGTACX_site6639],9.67
6,AACGAAAACACTACGTGTACCAAATGTCCTGCCAAC [XGTACX_site5735],9.81
7,AAATATTATCAAACATAAATTATTTTTATCCGTATA [CACACA_negctrl_site771],9.55
8,AAAAAAAAAAAAAACACACACATGCACCTCATATTA [CACACA_site556],10.4
9,AGGCATAATTAAAAGTAACAATTATGGAAACGGAGT [GTGCAC_negctrl_site623],9.74
10,TTTATTTATTATTAAAGTACTAAATTATATTATTAT [XGTACX_site2565],9.5
11,TATGTGCACCCATATACACACACAAATACAATGATA [CACACA_site8295],10.1
12,AATTCATATACAAAAAGTACAAACGAAAAATAAAAA [XGTACX_site2900],9.81
13,ATGTTTTATATTATTAATATATATATATATATATAT [CACACA_negctrl_site331],9.81
14,GTTATATAAAAATATTGTACATTCTATATAAAGTCA [XGTACX_site4418],9.47
15,AAAAAAAAAAAAAAATGTACATATAAATAAATATAT [XGTACX_site7248],9.62
16,TAATATCCATATAAAACACACATCAAGGTTGTTAAC [CACACA_site175],9.81
17,ACAACATAGAGGGGCACACACATATATACATAAAAA [CACACA_site6954],10.4
18,AAAAAAAAAAAAAACACACAAACGCTTTTTTTTTTT [CACACA_site686],9.71
19,TATGAAAATGTTCATACACACATAAAAAAAAAAAAA [CACACA_site3236],9.72
20,TACACATACACATACACACGCATAGAAACATACGAA [CACACA_site2137],10
21,TGTTTGAATAACAAAAAAAAAAAAAAAATTAAAAAA [CACACA_negctrl_site1332],9.32
22,ATTTTAAATGTTATGCGTACATATTAATCCTACTTA [XGTACX_site1344],9.7

row,Sequence,gcPBM binding intensity (ln)
1,TTTTAAAAATCTATATGTACACAATACGTCTATAAA [XGTACX_site5787],9.54
2,TTTTAAATATGCAGATGTACATTATAATGTTTTATT [XGTACX_site2079],9.7
3,TACATATTTTTATATACACACAATAATTATTATAAA [CACACA_site1659],9.6
4,GATATGTACTAATACACACACATATAGATTTATATA [CACACA_site6610],10
5,TATATTTATTATAACACACACATATATATATTATAT [CACACA_site1061],10
6,AAAATAAAAAATATAACACACAATAAATATATATAT [CACACA_site1926],10.2
7,ATTTCCTGGCTACTGTGTACTGACCTCCAGACTGCT [XGTACX_site2005],9.78
8,TTTTAACTTTTATATTGTACGTTGTTTATTTTATTT [XGTACX_site7504],9.94
9,GAAAAAAAAAAAAAAAAAAAAAAATTCATTTTTTTT [XGTACX_negctrl_site54],9.12
10,ATAATCATTTGGATATTCACAATATTTAAAATTAAA [CACACA_negctrl_site909],9.28
11,TATACAAAATAACTAGCACACATATGTATAAACATA [CACACA_site9236],10.1
12,ATAAATAAAATTAGGTGTACTTTAATTAAAGAAAAT [XGTACX_site3319],9.73
13,TATACATATATAATATGTACATATATTTTTTTTTAA [XGTACX_site2938],9.53
14,CATAAAAATATTTTCTGTACATATTCATATGACGTT [XGTACX_site3406],9.78
15,ATAAATATTGGGTGCACACACATAATATATATATAT [CACACA_site2272],10.2
16,AGGTTCCCAAAATGCACACCAATGAAATTATTTATT [CACACA_site553],9.57
17,ATATGTAATAATAAATGTACGAAACATTGAACGATG [XGTACX_site1266],9.93
18,TTTTTATATATCACGTGTACATATTTATTTTTACTC [XGTACX_site8049],10.1
19,GAATCATCCAAAATTGCATGCAAGGAAGAAGAAAAA [TGCATGCA_site764],9.71
20,CGTATGAAACATATATGTACTTATAAAAATATAACC [XGTACX_site7539],9.72
21,TTATAAATATAATATTGTACAAAATTTTAACATGTC [XGTACX_site5259],9.57
22,CTTATGTGTATAAGTAGTACTAAATTAAAATAATAT [XGTACX_site2681],9.6
